According to paper PMC6919601, “Identification of Plasmodium dipeptidyl aminopeptidase allosteric inhibitors by high throughput screening” (PLoS ONE, 2019):
Among all 110,000 compounds or so, about 230 (0.21%) showed an effect of 50% or more. The list shows a part of the results.

These molecules were tested against DPAP1 (Plasmodium falciparum, UniProt Q8IIJ9) (assay: primary screen, percent inhibition; read by cleavage of a fluorogenic dipeptide substrate; higher = more effect of the substance).
Parameters: species or system P. falciparum D10 trophozoite lysates; single well
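Further: 30 min substrate incubation versus DMSO and 10 µM JCP410 controls.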

DPAP1, sequence (Q8IIJ9 whole entry, looked up): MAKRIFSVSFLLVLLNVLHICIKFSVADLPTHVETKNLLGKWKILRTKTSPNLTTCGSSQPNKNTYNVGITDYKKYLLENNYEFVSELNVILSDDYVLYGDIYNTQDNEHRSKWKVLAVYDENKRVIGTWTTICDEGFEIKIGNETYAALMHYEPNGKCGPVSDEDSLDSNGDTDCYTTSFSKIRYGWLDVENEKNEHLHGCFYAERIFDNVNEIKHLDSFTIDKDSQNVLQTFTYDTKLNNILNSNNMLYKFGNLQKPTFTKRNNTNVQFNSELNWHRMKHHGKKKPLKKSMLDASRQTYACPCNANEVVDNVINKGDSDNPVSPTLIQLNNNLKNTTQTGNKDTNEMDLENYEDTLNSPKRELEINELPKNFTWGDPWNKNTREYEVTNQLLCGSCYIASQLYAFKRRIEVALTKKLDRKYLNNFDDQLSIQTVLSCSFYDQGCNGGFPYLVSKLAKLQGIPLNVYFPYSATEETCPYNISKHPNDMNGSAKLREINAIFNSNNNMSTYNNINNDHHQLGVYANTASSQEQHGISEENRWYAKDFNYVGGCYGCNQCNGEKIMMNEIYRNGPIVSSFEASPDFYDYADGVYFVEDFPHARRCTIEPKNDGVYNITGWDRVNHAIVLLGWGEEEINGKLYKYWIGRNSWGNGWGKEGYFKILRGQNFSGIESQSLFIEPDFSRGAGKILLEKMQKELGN

Compound	% Inhibition @ 10 uM [%]
COC(=O)c1ccc(-n2nnnc2SCC(=O)N2CCCCC2)cc1	2
O=C1N=C(Nc2ccc(Br)cc2)S/C1=C\c1ccc(C(=O)O)cc1	-1.35
CC(C)CC(C(=O)NCCC1=CCCCC1)N1Cc2ccccc2C1=O (stereo not shown)	-4.38
CCOC(=O)N1CCC(/N=c2\c(O)c(O)\c2=N/CCCOC)CC1	1.93
CCn1c(C)c(C)c2cc(C(=O)NCCc3ccc(SC)cc3)ccc21	-3.2
CCOc1ccc2nc(Sc3ccc(C=C4C(=O)N(C)C(=O)N(C)C4=O)o3)sc2c1	1.13
CC1CCc2c(sc3nnn(CC(=O)NCc4ccco4)c(=O)c23)C1 (stereo not shown)	2.24
CC12CC3(C)CC(C)(C1)CC(NC(=O)N1CCN(CCO)CC1)(C2)C3	-1.89
CC(C)N1CC2(c3ccccc3)CN(C(C)C)CC(c3ccccc3)(C1)C2=O	-1.1
Cc1ncc(-c2ccc([N+](=O)[O-])cc2)cn1	2.65
CCCCN(C(=O)c1cc2c(Cl)nc3ccc(C)cc3c2s1)C1CCN(C(C)=O)CC1	-1.7
O=C(Cn1nc(Cc2cccnc2)c2ccccc2c1=O)N1CCC2(CC1)OCCO2	-1.21
Cc1ccccc1-c1noc(-c2cccs2)n1	7.02
O=c1[nH]c(=O)n(Cc2ccccc2)c2c1C(C(F)(F)F)(C(F)(F)F)NC(c1ccccn1)=N2	-1.89
O=C(O)c1cnc(-c2ccccc2)nc1-c1ccncc1	2.39
Cc1ccc(CNC(=O)CSc2nc3nccnc3c(=O)n2Cc2ccccc2Cl)cc1	2.81
Fc1cccc(Cl)c1C1CC(c2cccnc2)Nc2ncnn21 (stereo not shown)	0.238
COc1ccc(S(=O)(=O)Nc2ccc3oc4c(c3c2)CC(C)CC4)cc1 (stereo not shown)	0.909
COc1cccc(-c2nc(CS(=O)(=O)CC(=O)NC(C)CCc3ccccc3)c(C)o2)c1 (stereo not shown)	-0.138
CCOC(=O)N1CCN(C(=O)CNS(=O)(=O)c2ccc3nc(C)sc3c2)CC1	-0.933
C#CCn1c(CCNC(C)=O)nc2ccccc21	-2.5
CCCCCCCCOc1ccc(/C=C(\C#N)c2nc(-c3ccc(OC)cc3)cs2)cc1	-5.94
CCOC(=O)c1c(N)oc2c3c(c(O)cc12)C(=O)c1ccccc1C3=O	-1.6
Cc1nc2ccc(S(=O)(=O)NC(C(=O)NCc3cccs3)c3ccccc3)cc2s1 (stereo not shown)	-5.89
COC(=O)C1=C(C)N=c2s/c(=C\c3ccc(Cl)cc3)c(=O)n2C1/C=C/c1ccccc1 (stereo not shown)	0.219

Compound	% Inhibition @ 10 uM [%]
COC(=O)Nc1ccc(NC(=O)C23CC4CC(CC(C4)C2)C3)cc1	-1.06
COC(=O)c1cc2ccc3c(c2oc1=O)CN(Cc1ccccc1)CO3	10.6
CCOC(=O)c1cc2cc3cc(C)ccc3nc2s1	2.1
O=C(c1ccc(Cl)c([N+](=O)[O-])c1)N(Cc1ccccc1)Cc1ccccc1	2.33
Cc1oc(-c2ccc(Cl)cc2)nc1CN1CCCC(C(=O)NCc2ccccc2Cl)C1 (stereo not shown)	0.689
CSC1=NSC2=NC(=O)/C(=C\c3ccco3)C(=N)N12	4.06
Cc1ccc(S(=O)(=O)Nc2nc(C)c(NC(=O)Nc3ccc(Cl)cc3)s2)cc1	9.03
COc1ccc(C(=O)NCc2oc(-c3ccccc3)cc2C(=O)O)cc1	-5.53
CC(O)(C#CCN1CCCCC1)c1ccccc1 (stereo not shown)	0.98
CCOCCCN1C(=O)CN(C2CCC(C)CC2)C(=O)C1c1ccc(C)cc1 (stereo not shown)	-5.8
Cc1ccc(-c2cn3c4c(=O)n(C)c(=O)n(C)c4nc3n2CC(O)c2ccccc2)cc1 (stereo not shown)	0.883
COc1ccc(/N=c2\scc(-c3ccc(OC)cc3)n2CCO)cc1	-3.39
C=CCSc1nc(-c2ccc(OC)cc2)cc(-c2ccc(OC)cc2)c1C#N	-3.66
CC(C)CCNC(=O)C1CCCCN1S(=O)(=O)c1ccc(C(C)(C)C)cc1 (stereo not shown)	-0.228
Cc1cc(C)c2ccc3c(C)c(C)n(C)c3c2n1	13.3
COc1cc(OC)cc(-c2nc3nc(C)c(CCC(=O)NCCC4=CCCCC4)c(C)n3n2)c1	-2.25
CC1(C)C/C(=N/O)c2cc3c(nc2C1)CC(C)(C)C/C3=N\O	1.41
CCC(=O)Nc1ccccc1C(=O)Nc1ccccc1	-4.97
Cc1nnc2nc(SCC(=O)N3CCCC3)n(-c3cccc(Cl)c3C)c(N)c1-2	11.4
O=C(Cc1cccs1)Nc1cccc(C(F)(F)F)c1	-0.641
CC(=O)Nc1ccc2c3c(cccc13)C(=O)N(C)C2=O	-0.693
COc1ccc(S(=O)(=O)N(CC(=O)N2CCc3ccccc3C2)c2cc(C)cc(C)c2)cc1OC	3.68
Cc1cccc(-n2c(C)nnc2SCc2nc(-c3cccs3)no2)c1	-0.45
CCN(CC)CCCNS(=O)(=O)c1ccc(-c2cc(C(F)(F)F)no2)s1	-3.05
COc1ccccc1-c1nnc2sc(-c3cc4ccccc4o3)nn12	6.01

Compound	% Inhibition @ 10 uM [%]
COc1cc(OC)c(OC)cc1/C=C1\N=C(c2ccc(Cl)cc2Cl)OC1=O	-4.27
CC(C)(C)S(=O)(=O)c1c(Br)cccc1Br	3.34
CS(=O)(=O)N(CC(=O)NCc1cccnc1)C1CCCCC1	-2.74
COc1ccc(S(=O)(=O)NC(c2ccccc2)c2ccccc2)cc1	-1.48
Cc1ccc(S(=O)(=O)NCc2ccccn2)cc1C	1.25
CC(C)CC(NC(=O)c1ccc(-n2cccc2)cc1)C(=O)NCC#N (stereo not shown)	-9.15
Cn1c(=O)c2c(nc(NCc3ccc4c(c3)OCO4)n2Cc2cccc(Cl)c2)n(C)c1=O	-4.89
OC1CCC2CCCNC2C1 (stereo not shown)	-5.47
COc1ccccc1N1C(=O)C2CC=CCC2C1=O (stereo not shown)	-6.87
Cc1ccc(NC(=O)c2c(-c3ccccc3)noc2C)c(Br)c1	-1.36
CCOC(=O)c1c(/N=C(\C)C2=C(O)c3ccccc3C2=O)sc(C)c1C	-2.13
COc1cc(C(=O)N2CCN(C3CCN(Cc4ccccc4)CC3)CC2)cc(OC)c1OC	2.26
Cc1ccc(Cl)cc1N1CCN(C(=O)CN(c2ccccc2)S(C)(=O)=O)CC1	-11.1
CCCNC(=O)Cn1ncn2c(cc3cc(F)ccc32)c1=O	1.68
CCN(CC)Cn1[nH]c(=O)ccc1=O	1.26
O=C(CCc1ccccc1)NC1(C(F)(F)F)C(=O)Nc2c1c(=O)[nH]c(=O)n2-c1ccc(Cl)cc1 (stereo not shown)	-4.75
CCC(=O)N1CCN(CC/N=C/C2=C(O)CC(C)(C)CC2=O)CC1	1.74
Oc1cccc(-n2ncnc2-c2ccccc2)c1	-0.307
Cc1nn(C)c(C)c1CN(C)C(=O)c1cc2nc(-c3cccs3)cc(C(F)(F)F)n2n1	-1.37
Cc1ccc(C)c(-c2csc(Nc3cccc4ccccc34)n2)c1	1.41
N#CCNC(=O)[C@@H](Cc1csc2ccccc12)NC(=O)OCc1ccccc1	-1.5
COC(=O)c1c(C)sc(C(c2cccc(Cl)c2)c2sc(C)c(C(=O)OC)c2O)c1O	-1.24
O=C(c1ccc(CS(=O)(=O)Cc2ccc(F)cc2)o1)N1CCC2(CC1)OCCO2	-2.72
O=C(O)c1c(CNCc2ccc3c(c2)OCO3)c2ccccc2n1Cc1ccccc1Cl	12.2
COc1ccccc1Nc1cc(C)nc2ccc(C)cc12	-1.91

Compound	% Inhibition @ 10 uM [%]
COc1ccc(NC(=O)c2cc3cc(Br)ccc3oc2=O)cc1	2.76
CCN(CCN(C)C)C1CCN(Cc2ccccc2)CC1	-1.21
CS(=O)(=O)N(CC(=O)N1CCc2ccccc2C1)c1ccccc1F	-21.6
Cc1ccnc(NS(=O)(=O)c2ccc(NC(=O)c3ccc(C)o3)cc2)n1	5.07
Cc1ccc(C)c(NC(=O)C(C)N2C(=O)C3C4C=CC(C4)C3C2=O)c1 (stereo not shown)	-7.97
CCOC(=O)C1=C(C)N=c2s/c(=C\c3cccc(O)c3)c(=O)n2C1c1ccccc1 (stereo not shown)	6.11
COc1ccccc1-c1nnc(C2CCN(S(=O)(=O)c3ccc(Br)s3)CC2)o1	2.34
CC(=O)c1cccc(NC(=O)CCN2C(=O)c3ccccc3C2=O)c1	1.33
NC1=NC(=O)C(CC(=O)Nc2ccc(N3CCCCC3)cc2)S1 (stereo not shown)	-4.4
Cc1nn(-c2ccccc2)c2c1N(CC(=O)NCC(C)c1ccccc1)C(=O)CS2 (stereo not shown)	-3.79
COc1ccc(CCNC(=O)Nc2cccs2)c(OC)c1	-1.11
CC1CCN(CCCNC(=O)C2CCC(=O)N2C2CCCC2)CC1 (stereo not shown)	3.79
OCCN1CCN(CCCN2c3ccccc3Sc3ccccc32)CC1	-1.91
Cc1ccccc1C(=O)NC(CC(=O)O)c1ccc(Cl)cc1 (stereo not shown)	4.19
CCOC(=O)N1CCN(CC(O)c2ccc3cc[nH]c3c2)CC1 (stereo not shown)	-1.08
CCCCc1[nH]nc2c1C(c1ccc(F)cc1F)C(C#N)=C(N)O2 (stereo not shown)	-2.77
O=[N+]([O-])c1ccc(Cl)c(CN2CCN(c3ccccc3F)CC2)c1	-3.71
COc1ccc(-c2csc(NC(=O)c3ccccc3F)c2C(=O)O)cc1	6.23
N#CC1=C(N)N(c2nc[nH]n2)C2=C(C(=O)CC(c3ccccc3)C2)C1c1ccc(F)cc1 (stereo not shown)	-5.63
Cc1ccc(Cl)cc1NC(=O)CN(c1ccc(F)cc1)S(=O)(=O)c1ccc2c(c1)OCCO2	6.63
COCCn1c(C)cc(C(=O)C(=O)Nc2nnc(COc3ccc(C)cc3)s2)c1C	0.655
COC(=O)c1ccc(N2C(=O)c3ccccc3C2=O)cc1O	-4.61
